Assay results published in the supplement of paper PMC3334620.
In all, about 33,000 sequences were measured (“E-score (-0.5 to 0.5)”: median about -0.041, highest 2% from about 0.37 on). The list shows a part of the results.

Molecular target: T1, Ecm22 (UniProt Q05958)
T1 sequence: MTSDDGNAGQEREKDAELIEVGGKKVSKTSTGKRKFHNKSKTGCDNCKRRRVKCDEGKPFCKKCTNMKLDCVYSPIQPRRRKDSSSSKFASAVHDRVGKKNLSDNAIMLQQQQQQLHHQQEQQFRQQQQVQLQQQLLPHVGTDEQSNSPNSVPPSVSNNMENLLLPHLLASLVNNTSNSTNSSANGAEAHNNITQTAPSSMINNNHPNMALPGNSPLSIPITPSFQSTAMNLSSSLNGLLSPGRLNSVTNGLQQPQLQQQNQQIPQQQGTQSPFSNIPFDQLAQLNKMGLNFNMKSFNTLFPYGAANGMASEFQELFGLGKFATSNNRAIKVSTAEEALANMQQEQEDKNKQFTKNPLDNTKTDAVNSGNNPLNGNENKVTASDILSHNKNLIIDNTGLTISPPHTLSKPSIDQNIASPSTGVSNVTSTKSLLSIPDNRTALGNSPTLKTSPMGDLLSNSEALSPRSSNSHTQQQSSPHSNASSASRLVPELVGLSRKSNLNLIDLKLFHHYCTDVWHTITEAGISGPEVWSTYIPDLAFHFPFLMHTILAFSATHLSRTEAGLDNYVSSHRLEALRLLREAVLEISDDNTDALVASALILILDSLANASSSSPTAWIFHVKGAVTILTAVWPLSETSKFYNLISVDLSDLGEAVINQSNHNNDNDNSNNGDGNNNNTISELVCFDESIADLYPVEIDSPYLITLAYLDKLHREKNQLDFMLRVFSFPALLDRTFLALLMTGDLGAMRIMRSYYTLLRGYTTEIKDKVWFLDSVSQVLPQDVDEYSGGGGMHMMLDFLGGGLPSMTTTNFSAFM
Assay: PBM E-score (8-mer binding enrichment) (E-score (-0.5 to 0.5)); higher = stronger / more preferred TF binding; most listed sequences are background and not binding sites
Settings: protein concentration: 200 nM; construct: GST-full length
Method in brief: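 The E-score, a modified Wilcoxon-Mann-Whitney statistic, was computed by the Universal PBM Analysis Suite for every ungapped eight-base word pooled with its reverse complement. Scans behind it were normalised with masliner after bound GST-tagged yeast transcription factors were detected with fluorescent anti-GST. The proteins, at about 100-200 nM, had been applied to universal all-10-mer Agilent arrays made double-stranded by primer extension.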

Row | Sequence | PBM E-score
1 | ACGCGTTG | 0.0889
2 | GCTGTTAA | 0.0716
3 | CAGTGACG | -0.143
4 | CGTGTGAG | -0.0263
5 | CATCGACC | -0.15
6 | GAATGATA | 0.175
7 | ACGGCACT | 0.0515
8 | AAAACTCA | -0.0877
9 | AAGCAATT | -0.235
10 | AGATGTGA | 0.0744
11 | GCATTTTA | -0.00685
12 | TATGAAGA | -0.0483
13 | CAGGAGGC | -0.207
14 | GCCATCGA | -0.036
15 | CACGAGGC | 0.171
16 | CGGCAAAA | -0.156
17 | GCAAAAGC | -0.0503
18 | CGGTCGTA | 0.464
19 | CAAGGTAG | -0.155
20 | ACGAGGCA | 0.401
21 | GGGGTCCA | -0.215
22 | ATCTAAAT | 0.164

Row | Sequence | PBM E-score
23 | CTTCGGTC | 0.225
24 | CTTTCGCA | 0.00706
25 | AACTAAAC | 0.24
26 | CGCCGGAG | 0.172
27 | CCATAGTA | -0.0616
28 | AGTGAACG | 0.267
29 | CTGCTACC | -0.188
30 | ATCGTGAC | 0.106
31 | ATTCTCGA | 0.168
32 | GCTTAGTA | -0.0609
33 | CAATTACC | 0.00312
34 | AGAGGCCC | -0.171
35 | ATTTTATC | 0.0997
36 | AGCGATTC | 0.12
37 | GAGGTTAA | -0.246
38 | GCCAACCC | -0.243
39 | ACTCCTTG | -0.0589
40 | ACGCTACC | -0.163
41 | AAATACGA | 0.451
42 | CGCTGGCA | -0.199
43 | AGGGATTC | -0.0618
44 | CAGCATCG | -0.0422

Row | Sequence | PBM E-score
45 | CCATATGC | 0.137
46 | CCTATTAG | -0.339
47 | CCCCATAA | -0.312
48 | GAAATGAC | -0.0886
49 | AATATGCG | 0.229
50 | AAGCCCTG | -0.243
51 | AATTTTGC | 0.0283
52 | GCAGGACC | -0.107
53 | CCCATTCG | 0.0416
54 | GCCGGAGC | -0.0845
55 | GTTTCCGA | 0.238
56 | CCACTATA | 0.111
57 | TAGAAATA | 0.0152
58 | TGGTCGAA | -0.197
59 | AGTGAACA | -0.0214
60 | CGCTTTAG | 0.0766
61 | GTTGTTGA | 0.00174
62 | GATTTGTA | -0.133
63 | AGAATGCC | -0.236
64 | ACGGATAG | 0.116
65 | GGAACTGA | 0.108
66 | CAGCGTCG | 0.0918

Row | Sequence | PBM E-score
67 | ACGGCCGA | 0.174
68 | CGCTTCTC | 0.0567
69 | GACTAATA | 0.0348
70 | CCAGAGCC | -0.0732
71 | ATGTAAGG | -0.194
72 | CTGGCCAC | -0.338
73 | ACCTGTCC | -0.171
74 | GATCTATA | 0.143
75 | CAAACCCG | 0.0549
76 | AGTTAGCC | -0.0838
77 | CTCTTCTC | -0.216
78 | CCCAGGCG | -0.177
79 | ACTTGCTC | -0.147
80 | CATTCACA | -0.125
81 | ACCATAAT | -0.00969
82 | CATGTTTA | 0.0358
83 | CACAGTGA | -0.0973
84 | AACGGTTC | 0.177
85 | CATGTGGG | -0.247
86 | AAAGACAA | -0.105
